From the supplement of paper PMC11417369
± gives the standard deviation of the averaged measurements. The list shows a part of the results.

system: PfAP2-LT AP2 domain (GST-tagged); experiment: gcPBM binding intensity (ln(normalized median fluorescence intensity)); higher = stronger DNA binding
How it was run: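 After 1 h on an Agilent 4 × 180k array of primer-extended double-stranded 36-bp intergenic genomic probes and negative controls, bound GST-tagged P. falciparum DNA-binding domains were detected with Alexa488 anti-GST antibody and scanned at 488 nm. The domains had been expressed in E. coli, and binding took place in 1× PBS with 1% milk, 0.2 mg/ml BSA, 0.5% salmon testes DNA and 0.03% Triton X-100. Binding intensity is the highest Masliner-normalised natural-log median intensity across replicate spots of either probe orientation.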

| Sequence | gcPBM binding intensity (ln) |
| --- | --- |
| AATCAATATTATATATGTACTTATTTTCACTTTTGC [XGTACX_site1775] | 8.92 ± 0.4 |
| TTTTTAGAAAAGGTTATAAAAAATTAATTGAAAAAA [GTGCAC_negctrl_site289] | 8.05 ± 0.47 |
| AGTTCAGAATTGAATAGTACATAAATATAACAAAAT [XGTACX_site650] | 8.97 ± 0.49 |
| AAGCGAATCTATATCACACACAAAAAAATCAGACTA [CACACA_site7072] | 9.14 ± 0.38 |
| TATGAACATATATATTGTACAAAATTATAATTTCAA [XGTACX_site6406] | 8.62 ± 0.39 |
| AACTGATATTAATTCTGTACCTATACGTTATATGTT [XGTACX_site1003] | 9.06 ± 0.34 |
| ACCCAAAATATATTCACACAAAAAATATTAAAAATA [CACACA_site5433] | 8.73 ± 0.47 |
| TTGCATCTATTTTTGAGTACACAATGAGAATAATTA [XGTACX_site7171] | 8.41 ± 0.26 |
| TTTGAAAAAAAATATTGTACACGTGAATAAAGTATT [XGTACX_site644] | 8.74 ± 0.36 |
| AAAAATAAATATACATGTACATAATAATAATATATA [XGTACX_site8359] | 9.06 ± 0.62 |
| TATATATATATATATATATATATATATATAATTTGA [XGTACX_negctrl_site3] | 9.62 ± 0.16 |
| AAAAAAAAAAGACACACACACACATACACATACATA [CACACA_site7362] | 9.97 ± 0.071 |
| TTAAAAAAGTAATTAACACACAATAATGTAATGCAT [CACACA_site4176] | 8.89 ± 0.4 |
| TTATTATATATGTTCACATAAATACATAAATATATA [GTGCAC_negctrl_site529] | 8.56 ± 0.33 |
| TTTATTTATATAATTACACACATATATACACAAATG [CACACA_site8903] | 8.96 ± 0.38 |
| TATTTAAATTAATATTGTACATATATTTATAATATA [XGTACX_site6109] | 8.35 ± 0.46 |
| AAATATATTATATATGCATGCGCCAAGATTTATATA [TGCATGCA_site770] | 8.82 ± 0.3 |
| TAATATATATAACAAGTGCAAAAAAATATAGATATT [GTGCAC_site9625] | 8.93 ± 0.48 |
| GAGAACATTGATACACGTACATAAGTTATAAGTATT [XGTACX_site7665] | 9.03 ± 0.45 |
| AAGCATCCTACTGATTGTACATATATATATATATAT [XGTACX_site2150] | 9.75 ± 0.35 |
| AATAAACAAATAAATAAATAAACAGATAAATAAATC [CACACA_negctrl_site920] | 8.98 ± 0.45 |
| TTAGGTTATAAATACACACACAAAAGAAAAAAAAAA [CACACA_site5625] | 9.23 ± 0.55 |
| TATAAATTTATACCAGTGCATTTTGAAATATATATA | 8.54 ± 0.48 |

| Sequence | gcPBM binding intensity (ln) |
| --- | --- |
| TGGAACCATAAAAAGTGTACACATATAAAAAATATG [XGTACX_site96] | 8.95 ± 0.57 |
| ATAATATGAGTCCCACAAAATAGACCATACGAATAT [CACACA_negctrl_site50] | 8.95 ± 0.48 |
| AGCTAAAATATTTTTGCACACGATTTTTTTTTTTTT [CACACA_site1140] | 8.91 ± 0.42 |
| TATTTTATTTTCCGAAGTACAAAAGCAAAAAAAAAC [XGTACX_site103] | 8.44 ± 0.48 |
| TATATTTATATAATATGTACATATTTTTTAATATTT [XGTACX_site3834] | 8.62 ± 0.4 |
| TATATATTTTATATATGTACATATTTATATGTTTCT [XGTACX_site1818] | 8.87 ± 0.48 |
| TTTTTTTTTTTTTGAACACACATTATTAACTTTTAT [CACACA_site6281] | 8.72 ± 0.46 |
| CGCGAACATACATACACACACATATATATATATGTA [CACACA_site205] | 9.53 ± 0.43 |
| AAAAAAAAGTTATATACACACATATAAATATAAATA [CACACA_site6683] | 8.92 ± 0.42 |
| CATGTAAAATATTAAAGTACATGATTATATATATAT [XGTACX_site7486] | 9.13 ± 0.22 |
| AAAAATATTAAAAGGCGTACAATACCTGTATGCAAC [XGTACX_site6069] | 8.81 ± 0.44 |
| CGGACATACTAACGGACACACGTAAGAAAAAAAAAG [CACACA_site4504] | 9.05 ± 0.64 |
| ATGCACGGAAAAATATGTACTTAATTTCAATAATAT [XGTACX_site8311] | 8.79 ± 0.45 |
| TATATGTCCATATTTCCACACACATATTATTTTTAT [CACACA_site9266] | 9.33 ± 0.41 |
| AGAGAGAACGGTATAACATGCGATAAATTTTAGAAG [TGCATGCA_site357] | 8.97 ± 0.58 |
| TTTTTTCAATAAATAATCGTATATTGAATAATAATA [CACACA_negctrl_site822] | 8.07 ± 0.37 |
| TATTAATTTTTCCTTTTTTTTTTACCCCTTTGTACA [CACACA_negctrl_site947] | 8.53 ± 0.63 |
| ATATATTATATTATATGTACTTAAAAAAGTGCAAAG [XGTACX_site318] | 8.55 ± 0.47 |
| TATATTCAATTTTTGGTGCGTAAATTAATACAAACA [GTGCAC_site9764] | 8.43 ± 0.39 |
| AAATAATACATTCGTACTACACATATATATTAAATA [XGTACX_site7806] | 8.79 ± 0.42 |
| AATATATACATATATACACACACATATATATATATA [CACACA_site8907] | 9.77 ± 0.014 |
| TAAAATGTTATAAGAACATGCAATTCCTTTTATTAT [TGCATGCA_site408] | 8.4 ± 0.44 |
